# According to PubChem BioAssay AID602342 (Broad Institute, 2012):
# In all, about 340,000 compounds went through this assay and about 1,000 (0.29%) were called active. Inconclusive results, whose numbers are uncertain, are shown with a selection of clear calls.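 How the source made its calls: active means mean replicate activation score at least 90 and every replicate individually at or above 90; inconclusive means only one of the two criteria met; inactive means neither criterion met.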
# Assay: miR-122 Renilla sensor signal increase in Huh7, primary screen, miR-122 inhibitor project, cell-based, single point, plate reader (AID 602342);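 further: higher luciferase means less miR-122 activity so hits act as miR-122 inhibitors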
# Settings: Huh7 miR-122 Renilla luciferase sensor, 48 h, active compounds read high, neutral wells = 0, positive control = 100; at 12.5 µM unless noted
row,Structure (SMILES),activation (reporter increase)
1,CN1C(=O)c2cc(NC(=O)Cc3ccccc3)ccc2OC[C@@H]2O[C@@H](CC(=O)NCC3CC3)CC[C@@H]21,active: 183% [at 16.7 µM]
2,O=C(CN1CCOCC1)N[C@@H]1CC[C@H](CCNC(=O)C2CCCC2)O[C@@H]1CO,inactive: 32.5% [at 16.7 µM]
3,CCN1C(=O)c2cccc3c(S(=O)(=O)N(C(=O)c4cccnc4)c4ccc(OC)cc4)ccc1c23,inconclusive: 105%
4,COc1ccc(/C=N/NC(=O)c2sc(C)nc2C)cc1,inactive: 6.05%
5,CCOc1ccccc1CN(Cc1ccco1)S(=O)(=O)c1ccc(-n2cnnn2)c(OC)c1,active: 138%
6,O=C(C[C@@H]1C[C@@H]2c3cc(NC(=O)NC4CCCC4)ccc3O[C@@H]2[C@@H](CO)O1)NCc1ccc(-c2ccccc2)cc1,inactive: 1.35% [at 16.7 µM]
7,CCOc1ccc(-c2cccc(NS(=O)(=O)c3cc([N+](=O)[O-])ccc3C)c2)nn1,active: 130%
8,COc1ccc(S(=O)(=O)Nc2cc3c4c(c2)CCC(=O)N4CCC3)cc1C,inconclusive: 92.1%
9,CC(c1ccco1)N(C(=O)CSc1ccc(Br)cc1)c1ccccn1 (stereo not given),inconclusive: 96.4%
10,CCc1nc2sc3c(c2c(=O)n1NC(=O)CCl)CCCC3,inconclusive: 96.4%
11,CCOc1ccc(NC(=O)C2=C(C)C(=O)OC23CCC(C)CC3)cc1 (stereo not given),inactive: -7.23%
12,CCCOc1c(Br)cc(C2C3=C(CCCC3=O)N(CC)C3=C2C(=O)CCC3)cc1OC,inconclusive: 109%
13,COCC(=O)Nc1ccc2c(c1)C(=O)N(C)[C@@H]1CC[C@@H](CC(=O)Nc3ccccc3)O[C@H]1CO2,inactive: -2.13% [at 16.7 µM]
14,COc1ccc(S(=O)(=O)N(C)C[C@H]2Oc3cc(C#CC4CCCC4)ccc3S(=O)(=O)N([C@H](C)CO)C[C@@H]2C)cc1,inconclusive: 101% [at 16.7 µM]
15,COc1cccc(N2CCN(C(=O)c3oc4ccccc4c3NC(=O)Cc3ccc(OC)c(OC)c3)CC2)c1,inconclusive: 96.4%
16,COc1cc(C)c(S(=O)(=O)NOCc2ccc([N+](=O)[O-])cc2)c(C)c1C,active: 323%
17,COc1ccc(C(=O)OC2C(OC)OCC(O)C2O)cc1 (stereo not given),inactive: 3.69%
18,C[C@H]1CN([C@@H](C)CO)C(=O)c2cccc(NC(=O)Nc3ccc4c(c3)OCO4)c2O[C@@H]1CN(C)CC1CCCCC1,inconclusive: 97.1% [at 16.7 µM]
19,Cn1c(=O)c2c(nc(NCCc3ccccc3)n2Cc2ccc(F)cc2)n(C)c1=O,inactive: 0.734%
20,O=c1c2ccccc2nc(SCc2nc3ccccc3s2)n1CCCO,inactive: 19.5%
